Results taken from the RNAGym collection of RNA variant scans (doi:10.1101/gad.245936.114).
Variants at the background level are over-represented here.

B1: tRNA (parent)
chain: CUCUCGGUAGCCAAGUUGGUUUAAGGCGCAAGACUUUAAUUUAUCACUACGAAAUCUUGAGAUCGGGCGUUCGACUCGCCCCCGGGAGAUUUUUUCCUCGAGCAA

Variants of: B1
Experiment: nonsense suppression (GFP-seq) (ratio to wild type); higher = more function; SUP4oc tRNA, yeast GFP reporter sort-seq
Summary of the method: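 Each variant's nonsense suppression (GFPSEQ) is a cell-share-weighted bin median GFP/RFP relative to the unmutated parent tRNA. Yeast with genome-integrated tRNA variants from a ~3% random-mutation library, a galactose-driven GFP ochre reporter and RFP were grown in raffinose/galactose medium with 80 mg/L adenine, then sorted into GFP/RFP bins for Illumina sequencing. Variants needed ≥100 reads and ≥30 cells.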
Variant U4G G15C U17C has a nonsense suppression of at most 0.026. Variant U4G G15C U20G U22A C83A has a nonsense suppression of at most 0.026. Work on U4G G15U yielded a nonsense suppression of at most 0.026. Work on U4G G15U C64U yielded a nonsense suppression of at most 0.026. With U4G G18A G85A the nonsense suppression was at most 0.026. Work on U4G G18C U35C G61C C68U U76C G86C yielded a nonsense suppression of at most 0.026. U4G G19A A30G showed a nonsense suppression of at most 0.026. In the case of U4G G19A A62U, the nonsense suppression is reported as at most 0.026. Work on U4G G19U U71A U76G A89C yielded a nonsense suppression of at most 0.026. For U4G G25U A60U G85A, the nonsense suppression was at most 0.026. With U4G G26U C27A U71G C77A the nonsense suppression was at most 0.026. For U4G G26U G84A, the nonsense suppression was at most 0.026. U4G G28U A54C A60C A62C showed a nonsense suppression of at most 0.026. For U4G G32C G73C G86U, the nonsense suppression was at most 0.026. Work on U4G G32U yielded a nonsense suppression of at most 0.026. For U4G G59A, the nonsense suppression was 0.0506. With U4G G59U C75G C80A the nonsense suppression was at most 0.026. In the case of U4G G59U C75U, the nonsense suppression is reported as at most 0.026. In the case of U4G G61A C82A, the nonsense suppression is reported as at most 0.026. In the case of U4G G61A G78U, the nonsense suppression is reported as at most 0.026. In the case of U4G G66A, the nonsense suppression is reported as 0.0774. For U4G G66A A89C, the nonsense suppression was at most 0.026. U4G G67A gave a nonsense suppression of at most 0.026. For U4G G69C G78A, the nonsense suppression was at most 0.026. For U4G G69C G86A, the nonsense suppression was at most 0.026. In the case of U4G G69U, the nonsense suppression is reported as at most 0.026. U4G G73C gave a nonsense suppression of 0.0291. U4G G88A showed a nonsense suppression of at most 0.026. For U4G U8A, the nonsense suppression was at most 0.026. In the case of U4G U8G C11U, the nonsense suppression is reported as at most 0.026. With U4G U16G A24U C77G the nonsense suppression was at most 0.026. In the case of U4G U16G G32C G65C, the nonsense suppression is reported as at most 0.026. Variant U4G U16G G61A U76A C79U has a nonsense suppression of at most 0.026. For U4G U17A G84A, the nonsense suppression was at most 0.026. Work on U4G U17G G69A yielded a nonsense suppression of at most 0.026. With U4G U20A the nonsense suppression was 0.0644. U4G U20A A33G G66C gave a nonsense suppression of at most 0.026. Variant U4G U20C C75A has a nonsense suppression of at most 0.026. In the case of U4G U21A G25U A31U A87C, the nonsense suppression is reported as at most 0.026. U4G U21C G73A showed a nonsense suppression of at most 0.026. For U4G U21G G32A U58G G59U G69A, the nonsense suppression was at most 0.026. U4G U22A C34G showed a nonsense suppression of at most 0.026. U4G U22A G26A G66C C82G showed a nonsense suppression of at most 0.026. Work on U4G U55C G61A yielded a nonsense suppression of at most 0.026. U4G U55G G73C A87U gave a nonsense suppression of at most 0.026. For U4G U57A, the nonsense suppression was at most 0.026. U4G U57A G59A G69C G88C A89C showed a nonsense suppression of at most 0.026. In the case of U4G U57G A60U, the nonsense suppression is reported as at most 0.026. Work on U4G U63A yielded a nonsense suppression of 0.199. In the case of U4G U70A U71G, the nonsense suppression is reported as at most 0.026. U4G U70C showed a nonsense suppression of at most 0.026. With U4G U70C G86C the nonsense suppression was at most 0.026. U4G U71A G73U C80A A87C gave a nonsense suppression of at most 0.026. U4G U71G G78A gave a nonsense suppression of at most 0.026. With U4G U76A the nonsense suppression was 0.109. Work on U4G U76G yielded a nonsense suppression of at most 0.026. C5A A9G C81A gave a nonsense suppression of at most 0.026. In the case of C5A A9G U21C A24U G25U U35G, the nonsense suppression is reported as at most 0.026. C5A A9U A54C showed a nonsense suppression of at most 0.026. C5A A9U C29A C77U A87G showed a nonsense suppression of at most 0.026. For C5A A9U C34A G84C, the nonsense suppression was at most 0.026. For C5A A9U U16G G25A U35G U63A, the nonsense suppression was at most 0.026. Variant C5A A13C G19U G32A G66C U71C has a nonsense suppression of at most 0.026. Variant C5A A13G has a nonsense suppression of at most 0.026. Work on C5A A13U yielded a nonsense suppression of at most 0.026. With C5A A13U A74U the nonsense suppression was at most 0.026. C5A A13U U55C G65A gave a nonsense suppression of at most 0.026. Variant C5A A14C A54C C72A A87C has a nonsense suppression of at most 0.026. C5A A14C G61A C83G gave a nonsense suppression of at most 0.026. For C5A A14C U58G, the nonsense suppression was at most 0.026. For C5A A14U A87U, the nonsense suppression was at most 0.026. In the case of C5A A14U G69C U71A G73C C81A, the nonsense suppression is reported as at most 0.026. C5A A23C G26U showed a nonsense suppression of at most 0.026. In the case of C5A A23U, the nonsense suppression is reported as at most 0.026. In the case of C5A A23U A60U C64G, the nonsense suppression is reported as at most 0.026. Variant C5A A23U C34G has a nonsense suppression of at most 0.026. In the case of C5A A23U G59C, the nonsense suppression is reported as at most 0.026. Variant C5A A24C G61U G67C has a nonsense suppression of at most 0.026. C5A A24C U63C showed a nonsense suppression of at most 0.026. Variant C5A A24G has a nonsense suppression of at most 0.026. For C5A A24G A33G, the nonsense suppression was at most 0.026. Work on C5A A30G U63G yielded a nonsense suppression of at most 0.026. C5A A30U C68A showed a nonsense suppression of at most 0.026.
